Our source for the z-score values is PubChem BioAssay AID1224903 (Bradner/Qi Labs at DFCI, 2016).

Molecules are shown by their SMILES. The list shows a part of the results. Further columns of the screen follow, without active or inactive calls. Compounds called inactive in the main read-out are mostly missing here.

In the experiment the target is Chromobox protein homolog 7 (Homo sapiens) (UniProt O95931). The experiment can be described thus: blockers of CBX7 binding to H3K27me3 peptide – biochemical, AlphaScreen, primary screen (AID 1224903). To be noted: AlphaScreen His6-CBX7 / biotin-H3K27me3 peptide binding; measured here: z-score of CBX7 signal; stronger effect = lower value. On the technique in general: In Alpha technology, singlet oxygen from a donor bead excites a nearby acceptor bead.
UniProt O95931, sequence (O95931 whole entry, looked up): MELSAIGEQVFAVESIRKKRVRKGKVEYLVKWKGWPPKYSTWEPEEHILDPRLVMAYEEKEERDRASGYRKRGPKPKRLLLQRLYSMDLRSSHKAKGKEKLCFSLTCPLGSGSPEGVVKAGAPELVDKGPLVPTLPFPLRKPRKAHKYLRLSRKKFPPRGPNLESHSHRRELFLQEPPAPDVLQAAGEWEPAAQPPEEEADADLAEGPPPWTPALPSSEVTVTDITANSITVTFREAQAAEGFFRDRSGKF
Regarding `CCN(c1ccccc1)S(=O)(=O)c1ccc(C(=O)Nc2nnc(C3CC3)o2)cc1`, the z-score was -1.62.
With `CC(=O)Nc1nc(C)c(-c2csc(Nc3ccc(N)cc3)n2)s1`, the z-score was -2.34.
For the compound `COc1cc(-c2nc(-c3cccs3)c(-c3cccs3)[nH]2)ccc1O`, the z-score is -6.34.
With `CCCCn1cnc2cc(NCc3ccccc3Cl)ccc21`, the z-score was -22.3.
In the case of `COc1ccccc1-c1nnc(NC(=O)c2ccc(S(=O)(=O)N(C)C)cc2)o1`, the z-score was -16.2.
In turn, `Cc1cc(=O)n2ccc(CN3CCCCC3)c(O)c2n1` yielded a z-score of -6.25.
As to `Cc1ccc(NCC(O)Cn2c3c(c4cc(C)ccc42)CCCC3)c(C)c1` (centres undefined), the z-score is -5.67.
Consider `Cc1cccc(Nc2nc(-c3sc(N)nc3C)cs2)c1`, for which the z-score is -10.2.
The compound `Cc1nnc(NC(=O)c2ccc(S(=O)(=O)N(C)C)cc2)o1` registered a z-score of -25.7.
As to `CCc1ccc(NC(=O)CSc2nccn2-c2cccc(Cl)c2)cc1`, the z-score was -2.01.
In turn, `O=C(Nc1nc(-c2ccccn2)cs1)c1ccc(Oc2ccccc2)cc1` registered a z-score of -16.1.
In turn, `N#Cc1nc(COc2ccc(F)cc2)oc1N1CCCCC1` displayed a z-score of -10.6.
The compound `CC1NC(=O)NC1CCCCCC(=O)OCC(=O)c1ccccc1` (centres undefined) returned a z-score of -20.9.
On to `Cc1cccc(NC(=O)CSc2nccn2-c2ccc(Cl)cc2)c1`, for which the z-score is -1.94.
In turn, `CC(C)(C)n1cnc2cc(NCc3ccccc3Cl)ccc21` showed a z-score of -17.3.
On to `O=C(CSc1nnnn1-c1ccccc1)Nc1ncccn1`, for which the z-score is -4.06.
With `CCCCOc1cccc(-c2nc3c(C(=O)OC)c[nH]n3c2NC2CCCCCC2)c1` the figure was -10.7.
The compound `COc1ccc(OC)c(CNC(=O)CCCc2cn(C)c3ccccc23)c1` came in with a z-score of -9.36.
Compound `Cc1nc(NCCc2ccc3c(c2)OCCO3)c2cc(-c3ccccc3)sc2n1` registered a z-score of -7.19.
To `Cc1ccnc(Nc2nc(-c3sc(N)nc3C)cs2)c1` belongs -11.8; to `CCCCOc1cccc(-c2nc3c(C(=O)OC)c[nH]n3c2NC2CCCC2)c1`, -0.903; to `COc1ccc(CN2C(=O)c3cccnc3C2Nc2ccc(OC)c(Cl)c2)cc1` (centres undefined), -10.8.
Turning to `Cc1ccc(-c2[nH]c(-c3c[nH]c4ccccc34)nc2-c2ccccc2)cc1`, the z-score was -0.62.
`Cc1ccccc1Nc1c(-c2ccccn2)nc2ccccn12` gave a z-score of -17.2.
In the case of `Cc1ccc(Nc2nc(-c3c(C)nc4sccn34)cs2)c(C)c1`, the z-score is -0.65.
To `CC(C)CN(CC(C)C)S(=O)(=O)c1ccc(C(=O)Nc2nnc(C3CC3)o2)cc1` belongs -2.78.
Consider `Cc1cc(C)c(OCC(O)Cn2cnc3ccccc32)c(C)c1` (centres undefined), for which the z-score was -9.74.
Compound `O=C(Nc1nnc(-c2ccc(F)cc2)o1)c1ccc(S(=O)(=O)N2CCOCC2)cc1` gave a z-score of -4.38.
Consider `CCc1nnc(NC(=O)c2ccc(S(=O)(=O)N(C)Cc3ccccc3)cc2)o1`, for which the z-score was -5.47.
Take `COc1ccc(-c2cn(-c3ccc(Cl)cc3)c(SCC(=O)Nc3ccc(F)cc3)n2)cc1OC`: the z-score was -4.21.
With `CCOC(=O)c1cnc2c(C)cc(C)cc2c1Nc1ccc(N2CCCCC2)cc1` the figure was -17.8; with `COc1cc(C(=O)NCc2nnc(SCC(=O)Nc3cc(C)on3)o2)cc(OC)c1OC`, -14.6; with `N#Cc1nc(COc2ccccc2F)oc1N1CCN(Cc2ccccc2)CC1`, -9.88.
Compound `COc1ccc(C2c3c(-c4ccccc4)n[nH]c3C(=O)N2c2ccccc2)cc1` (centres undefined) returned a z-score of -6.98.
Compound `CCCCn1cnc2cc(NCc3ccc(Cl)cc3)ccc21` registered a z-score of -22.3.
`COc1ccc(OC)c(NC(=O)c2c(NCc3ccc(N(C)C)cc3)sc3c2CCCC3)c1` had a z-score of -27.
To `COc1ccc(C(=O)Nc2nc(N3C(=O)c4ccccc4C3=O)n(-c3ccccc3)n2)cc1` belongs -8.56; to `CCCCN(CCCNC(=O)C1CC(=O)N(CCc2ccccc2)C1)c1ccccc1` (centres undefined), -1.02; to `C=CCN(CC=C)S(=O)(=O)c1ccc(C(=O)Nc2nnc(CC)o2)cc1`, -10.3.
As to `CCC1CCCCN1S(=O)(=O)c1ccc(C(=O)Nc2nnc(-c3ccccc3Cl)o2)cc1` (centres undefined), the z-score is -4.16.
In turn, `CCOc1ccc(Nc2nc(-c3ccccn3)cs2)cc1` returned a z-score of -13.5.
The compound `CCCn1cnc2cc(NCc3ccccn3)ccc21` registered a z-score of -18.7.
The compound `O=C(Nc1nnc(C2CC2)o1)c1ccc(S(=O)(=O)N2CCCCCC2)cc1` returned a z-score of -2.79.
For the compound `O=C(Nc1ccc(Cc2ccncc2)cc1)c1ncn[nH]1`, the z-score was -27.7.
`CCN(CC)c1ccc(Nc2nc(-c3c(C)nc4ccccn34)cs2)cc1` gave a z-score of -18.3.
To `c1ccc(-c2csc(Nc3ncccn3)n2)nc1` belongs -19.5; to `C=CCN(CC=C)S(=O)(=O)c1ccc(C(=O)Nc2nnc(C3CC3)o2)cc1`, -2.79; to `CCOC(=O)N1CCc2c(sc(NCc3cccs3)c2C(=O)Nc2cc(OC)ccc2OC)C1`, -5.23.
In turn, `CCc1nnc(NC(=O)c2ccc(S(=O)(=O)N3CCCC3)cc2)o1` registered a z-score of -12.3.
Consider `CN(C)S(=O)(=O)c1ccc(C(=O)Nc2nnc(-c3ccc(Cl)s3)o2)cc1`, for which the z-score was -13.1.
With `CCOc1ccccc1NC(=O)CSc1nccn1-c1cccc(Cl)c1` the figure was -2.52.
`Fc1ccc(-c2[nH]c(-c3c[nH]c4ccccc34)nc2-c2ccccc2)cc1` displayed a z-score of -0.581.
To `Oc1ccc(-c2[nH]c(-c3cccc(Cl)c3)nc2-c2ccccc2)cc1` belongs -0.585; to `Cc1c(NC(=O)c2ncn[nH]2)cccc1-c1nc2ccccc2s1`, -21.6; to `CCOC(=O)c1[nH]cnc1C(=O)Nc1ccccn1`, -14.6.
`COc1ccc(NC(CNS(=O)(=O)c2ccccc2)c2ccccc2)cc1` (centres undefined): the z-score was -10.2.
With `CCC(=C(c1ccc(OC)cc1)c1ccc(OC)cc1)c1cn(CC(O)CN2CCOCC2)c2ccccc12` (centres undefined) the figure was -3.97.
For `CCCn1cnc2cc(NCc3ccc(OCC)cc3)ccc21`, the z-score is -16.
Take `CCCCN1CCCc2cc(CN(CCCN3CCOCC3)C(=O)Nc3ccc(C)c(C)c3)ccc21`: the z-score is -15.4.
`CCCn1cnc2cc(NCc3cccc(Br)c3)ccc21` displayed a z-score of -19.3.
As to `Cc1cccnc1NC(c1ccccc1)c1ccc2cccnc2c1O` (centres undefined), the z-score is -15.6.
Compound `O=C(Nc1nnc(-c2ccc(Cl)s2)o1)c1ccc(S(=O)(=O)N2CCOCC2)cc1` registered a z-score of -11.2.
On to `COC(=O)CNc1c(-c2ccccn2)nc2ccccn12`, for which the z-score is -29.
Compound `O=C(Nc1ccc(N2CCCC2=O)cc1)c1ncn[nH]1` had a z-score of -9.73.
In the case of `CCc1ccc2oc(-c3ccc(NC(=O)c4ncn[nH]4)cc3)nc2c1`, the z-score was -17.3.
Take `COc1ccc(N2CCN(c3oc(COc4ccc(C)cc4)nc3C#N)CC2)cc1`: the z-score is -14.7.
Compound `COc1ccc2c(c1)c(CC(=O)Nc1ccccn1)c(C)n2C(=O)c1ccc(Cl)cc1` showed a z-score of -2.07.
In the case of `CN(Cc1ccccc1)c1oc(COc2ccccc2F)nc1C#N`, the z-score was -3.64.
`CC1CCN(Cc2cc(Cn3ccnc3)c3cccnc3c2O)CC1` had a z-score of -15.7.
